# Source: the supplement of paper PMC3334620
# Over roughly 33,000 sequences, “E-score (-0.5 to 0.5)” has its median near -0.035; the highest 2% begin near 0.34. The list shows a part of the results.
# Molecular target: T1, Mot3 (UniProt P54785)
# T1 sequence: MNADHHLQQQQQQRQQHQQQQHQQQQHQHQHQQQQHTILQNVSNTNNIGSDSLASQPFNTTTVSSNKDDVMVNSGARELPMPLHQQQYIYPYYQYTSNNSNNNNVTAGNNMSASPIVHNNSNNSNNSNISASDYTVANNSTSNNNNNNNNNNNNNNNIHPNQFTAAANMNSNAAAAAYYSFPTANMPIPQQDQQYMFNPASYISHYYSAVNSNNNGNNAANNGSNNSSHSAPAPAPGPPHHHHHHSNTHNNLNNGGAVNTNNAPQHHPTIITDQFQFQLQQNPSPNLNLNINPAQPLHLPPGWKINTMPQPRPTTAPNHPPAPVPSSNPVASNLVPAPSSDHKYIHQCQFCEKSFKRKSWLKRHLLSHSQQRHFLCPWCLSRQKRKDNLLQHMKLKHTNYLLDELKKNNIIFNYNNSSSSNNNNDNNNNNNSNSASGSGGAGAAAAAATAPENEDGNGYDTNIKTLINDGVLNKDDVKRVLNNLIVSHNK
# Test: PBM E-score (8-mer binding enrichment) (E-score (-0.5 to 0.5)); higher = stronger / more preferred TF binding; most listed sequences are background and not binding sites
# Settings: protein concentration: 200 nM; construct: GST-full length
# In short: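 The E-score, a modified Wilcoxon-Mann-Whitney statistic, was computed by the Universal PBM Analysis Suite for every ungapped eight-base word pooled with its reverse complement. Scans behind it were normalised with masliner after bound GST-tagged yeast transcription factors were detected with fluorescent anti-GST. The proteins, at about 100-200 nM, had been applied to universal all-10-mer Agilent arrays made double-stranded by primer extension.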
row,Sequence,PBM E-score
1,AAGGTGTC,0.129
2,CTATGCTC,-0.196
3,ATTAGGGA,-0.132
4,AAACGCTG,0.0217
5,CGAATACA,0.277
6,CCTTCTAA,-0.00208
7,ATATCATG,0.0066
8,ATTATTAC,0.244
9,CATGAATG,0.0214
10,ATGTGCAG,0.0234
11,CCTAGGGC,-0.262
12,ATATGTAG,0.202
13,AAAACACG,0.335
14,CCAGCGGG,-0.266
15,GCTGGCTA,-0.356
16,AGCTTAAC,0.133
17,AGTTTTCC,0.0576
18,GCAGTAAA,-0.0685
19,ATGCAGAA,-0.00948
20,CGGTCTTA,-0.168
21,AATGTTAC,0.213
22,AGTCGGTC,-0.191
23,GTCACGAA,0.0688
24,CGGACAAA,0.00488
25,CACATACC,0.136

row,Sequence,PBM E-score
1,GGTGGCGA,-0.201
2,GAACTTAC,0.174
3,AGCTTCTC,-0.135
4,CGTGGGCC,-0.0848
5,AGCAAAAT,0.151
6,CTGGACGA,-0.174
7,CGGAACAA,0.0225
8,AAAACGGC,0.0108
9,TAAGATAA,0.0765
10,CTGTTGTC,0.00315
11,AATCAGCC,-0.232
12,TTCTTCAA,0.0231
13,CTCTGGCA,-0.309
14,CTTTTACC,0.141
15,GTTTATGA,-0.0399
16,CGTCTTAA,0.038
17,AGGGTACA,0.0495
18,ACAGGGTC,0.0763
19,ATCTTGAA,0.0179
20,ATACCTGG,-0.151
21,CGATGTGA,0.037
22,CGAAGACG,-0.186
23,AACGTTGT,0.192
24,TCCAAACA,-0.0454
25,GACAAGAC,-0.0436

row,Sequence,PBM E-score
1,CGCTTTTC,-0.0864
2,CAGTGAGA,-0.17
3,CATGTGTC,0.0577
4,AATATACC,-0.0367
5,ACCATACC,-0.327
6,CCCAGAGA,-0.224
7,ATCAGCAT,0.0765
8,ATGAACCA,0.101
9,CGACCTCA,-0.0396
10,CCCTACGA,-0.0683
11,AAAAGTTT,0.0965
12,AAGTGGGC,0.0201
13,ACGAGGAG,-0.169
14,CGAGCCCG,-0.303
15,ACTTATCG,-0.238
16,CCGGTTCC,0.0313
17,TGCGAGAA,-0.215
18,CCTACTAA,-0.0114
19,CCCTAACC,-0.29
20,TATGCTGA,0.0175
21,ACTGCAAA,-0.0642
22,CCGTGGAA,-0.0488
23,CCTGGCAG,0.0611
24,GCATAAGC,-0.00811
25,CTGCCCAC,-0.0587

row,Sequence,PBM E-score
1,AGACTCGG,-0.368
2,ACTCCTAC,0.00755
3,ATACCAAG,0.0179
4,ACGTCGAC,0.109
5,ACCACTCT,-0.203
6,CAACATTA,0.187
7,ATTAACAG,0.163
8,ATATTGTG,0.143
9,CACACAAA,0.151
10,GTGCGCGA,-0.149
11,CAGTTCAC,-0.0608
12,AGAGGCAC,0.465
13,ATGCCACG,-0.0291
14,CAGTATCA,-0.111
15,GTCAGCTA,-0.211
16,GTATGGCA,-0.0542
17,CACTTGTA,0.23
18,GCAGTGCA,-0.21
19,ACCACGGA,-0.175
20,TTAGAAAA,0.0162
21,ACTTTTCG,-0.0559
22,CTGAGCTA,-0.296
23,TAACTGAA,0.0274
24,ACGGCTGG,-0.296
25,CGCTGATA,0.0385

row,Sequence,PBM E-score
1,CAGAGTAG,-0.0204
2,ATGACATG,0.294
3,AGGTACGG,0.39
4,ACAGGCGG,-0.015
5,AAAGTGAC,0.0409
6,CCTAGTCA,0.0544
7,CTTCGAGA,0.0488
8,GTCAAAAA,0.13
9,GACAGTCC,-0.239
10,ACGACAAG,-0.0379
11,GCTTGGCA,-0.105
12,TAAATATA,0.161
13,ACTGGCCT,-0.225
14,TATTCAAA,0.0658
15,ATTCGACG,0.0182
16,ATACCCAC,-0.107
17,AGTGTGGA,-0.0682
18,ACATTCCC,0.137
19,GACGAAAC,-0.0507
20,ACTTGGAG,-0.126
21,AGTCGACT,-0.0175
22,GCGCGCGA,-0.031
23,ACAGATGT,-0.0647
24,GGTGCGCA,-0.194
25,ACTATGGC,0.128

row,Sequence,PBM E-score
1,AGGTTTGC,0.0354
2,CCTCTATC,-0.0465
3,AAGCGGTA,0.0928
4,ACGCGAGG,-0.0702
5,ATGTTTAG,0.279
6,TCTCCCAA,-0.166
7,CAGCGTGA,-0.0794
8,AGGACCGA,-0.171
9,AGGATTTA,-0.0676
10,GCTTCACC,-0.24
11,CTCATCAG,-0.0116
12,AAGATAAA,0.175
13,AGTGTCAT,0.126
14,GCAGCATA,0.0575
15,AGTTTCAT,-0.0336
16,ACGCAAAA,0.156
17,CCCCTACA,0.0392
18,CCTTCCGA,0.062
19,GGTTTTAC,0.154
20,TGACGACA,0.0496
21,CCCGCGCA,-0.257
22,TACAGACA,0.183
23,TACATTCA,0.246
24,CCACCGCA,-0.192
25,CCCCGGCC,-0.306

row,Sequence,PBM E-score
1,CATAACCG,-0.103
2,AAGGAAGT,-0.105
3,ATCTTGTG,0.0404
4,AACAAAGC,0.208
5,CGCCTCGA,-0.0217
6,ATCCTCAG,-0.0109
7,GCAAGCAA,0.0973
8,AATTGGAG,-0.184
9,CCGCCGCC,-0.203
10,ACTCGTCC,0.0032
11,GAGCACAA,-0.00774
12,CATGCGAC,-0.0646
13,CAAATTTA,0.166
14,ATGCTTAC,-0.188
15,GCACTGGC,-0.14
16,AACGGTAG,-0.142
17,GAAAAGCA,-0.0279
18,CACCAGAC,-0.0318
19,GATCGTGC,-0.0153
20,CTTCGAAG,-0.047
21,TCGTTCAA,0.0303
22,GAATCCCA,-0.0287
